{
  "source": "the supplement of paper PMC8728848",
  "assay_in_all_cases": "glycan array binding signal (z-score within array); higher = stronger binding",
  "conditions_in_all_cases": "glycan notation: IUPAC condensed, linker removed",
  "key": {"[1]": {"molecular_target": "Man(a1-2)Man(a1-6)[Man(a1-3)]Man(a1-6)[Man(a1-2)Man(a1-2)Man(a1-3)]Man(b1-4)GlcNAc(b1-4)GlcNAc", "in_short": "(§1)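 From the Consortium for Functional Glycomics database, 3228 arrays were curated, keeping only those whose protein sequence was available. Binding is given as a within-array Z-score averaged across arrays sharing a protein sequence and across linkers. Negative Z-scores can be read as non-binding.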"}, "[2]": {"molecular_target": "Man(a1-3)[Man(a1-6)]Man", "in_short": "as §1"}, "[3]": {"molecular_target": "Man(a1-3)[Man(a1-6)]Man(a1-6)[Man(a1-2)Man(a1-3)]Man(b1-4)GlcNAc(b1-4)GlcNAc", "in_short": "as §1"}, "[4]": {"molecular_target": "Man(a1-3)[Man(a1-6)]Man(a1-6)[Man(a1-3)]Man", "in_short": "as §1"}, "[5]": {"molecular_target": "Man(a1-3)[Man(a1-6)]Man(a1-6)[Man(a1-3)]Man(b1-4)GlcNAc(b1-4)GlcNAc", "in_short": "as §1"}, "[6]": {"molecular_target": "Man(a1-3)[Man(a1-6)]Man(b1-4)GlcNAc(b1-4)GlcNAc", "in_short": "as §1"}, "[7]": {"molecular_target": "Man(a1-6)Man", "in_short": "as §1"}, "[8]": {"molecular_target": "Man(b1-4)GlcNAc", "in_short": "as §1"}, "[9]": {"molecular_target": "Neu5Ac(a2-3)Gal", "in_short": "as §1"}, "[10]": {"molecular_target": "Neu5Ac(a2-3)Gal(b1-3)GalNAc", "in_short": "as §1"}, "[11]": {"molecular_target": "Neu5Ac(a2-3)Gal(b1-3)GalNAc(b1-3)Gal(a1-4)Gal(b1-4)Glc", "in_short": "as §1"}, "[12]": {"molecular_target": "Neu5Ac(a2-3)Gal(b1-3)GalNAc(b1-3)Gal(b1-4)GlcNAc", "in_short": "as §1"}, "[13]": {"molecular_target": "Neu5Ac(a2-3)Gal(b1-3)GalNAc(b1-4)[Neu5Ac(a2-3)]Gal(b1-4)Glc", "in_short": "as §1"}, "[14]": {"molecular_target": "Neu5Ac(a2-3)Gal(b1-3)GalNAc(b1-4)[Neu5Ac(a2-8)Neu5Ac(a2-3)]Gal(b1-4)Glc", "in_short": "as §1"}, "[15]": {"molecular_target": "Neu5Ac(a2-3)Gal(b1-3)GalNAc6S", "in_short": "as §1"}, "[16]": {"molecular_target": "Neu5Ac(a2-3)Gal(b1-3)GlcNAc", "in_short": "as §1"}, "[17]": {"molecular_target": "Neu5Ac(a2-3)Gal(b1-3)GlcNAc(b1-2)Man(a1-3)[Neu5Ac(a2-3)Gal(b1-3)GlcNAc(b1-2)Man(a1-6)]Man(b1-4)GlcNAc(b1-4)GlcNAc", "in_short": "as §1"}, "[18]": {"molecular_target": "Neu5Ac(a2-3)Gal(b1-3)GlcNAc(b1-3)Gal(b1-3)GlcNAc", "in_short": "as §1"}, "[19]": {"molecular_target": "Neu5Ac(a2-3)Gal(b1-3)GlcNAc(b1-3)Gal(b1-4)GlcNAc", "in_short": "as §1"}, "[20]": {"molecular_target": "Neu5Ac(a2-3)Gal(b1-3)GlcNAc(b1-3)GalNAc", "in_short": "as §1"}, "[21]": {"molecular_target": "Neu5Ac(a2-3)Gal(b1-3)GlcNAc6S", "in_short": "as §1"}, "[22]": {"molecular_target": "Neu5Ac(a2-3)Gal(b1-3)[Fuc(a1-4)]GlcNAc", "in_short": "as §1"}, "[23]": {"molecular_target": "Neu5Ac(a2-3)Gal(b1-3)[Fuc(a1-4)]GlcNAc(b1-3)Gal(b1-3)[Fuc(a1-4)]GlcNAc", "in_short": "as §1"}, "[24]": {"molecular_target": "Neu5Ac(a2-3)Gal(b1-3)[Fuc(a1-4)]GlcNAc(b1-3)Gal(b1-4)[Fuc(a1-3)]GlcNAc", "in_short": "as §1"}, "[25]": {"molecular_target": "Neu5Ac(a2-3)Gal(b1-3)[Neu5Ac(a2-3)Gal(b1-4)]GlcNAc", "in_short": "as §1"}, "[26]": {"molecular_target": "Neu5Ac(a2-3)Gal(b1-3)[Neu5Ac(a2-6)]GalNAc", "in_short": "as §1"}, "[27]": {"molecular_target": "Neu5Ac(a2-3)Gal(b1-4)Glc", "in_short": "as §1"}, "[28]": {"molecular_target": "Neu5Ac(a2-3)Gal(b1-4)GlcNAc", "in_short": "as §1"}, "[29]": {"molecular_target": "Neu5Ac(a2-3)Gal(b1-4)GlcNAc(b1-2)Man(a1-3)[GlcNAc(b1-2)Man(b1-4)GlcNAc(b1-2)Man(a1-6)]Man(b1-4)GlcNAc(b1-4)GlcNAc", "in_short": "as §1"}, "[30]": {"molecular_target": "Neu5Ac(a2-3)Gal(b1-4)GlcNAc(b1-2)Man(a1-3)[Neu5Ac(a2-6)Gal(b1-4)GlcNAc(b1-2)Man(a1-6)]Man(b1-4)GlcNAc(b1-4)GlcNAc", "in_short": "as §1"}, "[31]": {"molecular_target": "Neu5Ac(a2-3)Gal(b1-4)GlcNAc(b1-3)Gal", "in_short": "as §1"}, "[32]": {"molecular_target": "Neu5Ac(a2-3)Gal(b1-4)GlcNAc(b1-3)Gal(b1-3)GlcNAc", "in_short": "as §1"}, "[33]": {"molecular_target": "Neu5Ac(a2-3)Gal(b1-4)GlcNAc(b1-3)Gal(b1-4)GlcNAc", "in_short": "as §1"}, "[34]": {"molecular_target": "Neu5Ac(a2-3)Gal(b1-4)GlcNAc(b1-3)Gal(b1-4)GlcNAc(b1-3)Gal(b1-4)GlcNAc", "in_short": "as §1"}, "[35]": {"molecular_target": "Neu5Ac(a2-3)Gal(b1-4)GlcNAc(b1-3)Gal(b1-4)[Fuc(a1-3)]GlcNAc", "in_short": "as §1"}, "[36]": {"molecular_target": "Neu5Ac(a2-3)Gal(b1-4)GlcNAc(b1-3)GalNAc", "in_short": "as §1"}, "[37]": {"molecular_target": "Neu5Ac(a2-3)Gal(b1-4)GlcNAc(b1-6)[Gal(b1-3)]GalNAc", "in_short": "as §1"}, "[38]": {"molecular_target": "Neu5Ac(a2-3)Gal(b1-4)GlcNAc(b1-6)[Neu5Ac(a2-3)Gal(b1-3)]GalNAc", "in_short": "as §1"}, "[39]": {"molecular_target": "Neu5Ac(a2-3)Gal(b1-4)GlcNAc6S", "in_short": "as §1"}, "[40]": {"molecular_target": "Neu5Ac(a2-3)Gal(b1-4)[Fuc(a1-3)]GlcNAc", "in_short": "as §1"}, "[41]": {"molecular_target": "Neu5Ac(a2-3)Gal(b1-4)[Fuc(a1-3)]GlcNAc(b1-3)Gal", "in_short": "as §1"}, "[42]": {"molecular_target": "Neu5Ac(a2-3)Gal(b1-4)[Fuc(a1-3)]GlcNAc(b1-3)Gal(b1-4)GlcNAc", "in_short": "as §1"}, "[43]": {"molecular_target": "Neu5Ac(a2-3)Gal(b1-4)[Fuc(a1-3)]GlcNAc(b1-3)Gal(b1-4)[Fuc(a1-3)]GlcNAc(b1-3)Gal(b1-4)[Fuc(a1-3)]GlcNAc", "in_short": "as §1"}, "[44]": {"molecular_target": "Neu5Ac(a2-3)Gal(b1-4)[Fuc(a1-3)]GlcNAc(b1-3)GalNAc", "in_short": "as §1"}, "[45]": {"molecular_target": "Neu5Ac(a2-3)Gal(b1-4)[Fuc(a1-3)]GlcNAc(b1-6)[Gal(b1-3)]GalNAc", "in_short": "as §1"}},
  "note": "This is one part of the list.",
  "data": [
    {"binder": "AAL (Aleuria aurantia), P18891 (protein) PTEFLYTSKIAAISWAATGGRQQRVYFQDLNGKIREAQRGGDNPWTGGSSQNVIGEAKLFSPLAAVTWKSAQGIQIRVYCVNKDNILSEFVYDGSKWITGQLGSVGVKVGSNSKLAALQWGGSESAPPNIRVYYQKSNGSGSSIHEYVWSGKWTAGASFGSTVPGTGIGATAIGPGRLRIYYQATDNKIREHCWDSNSWYVGGFSASASAGVSIAAISWGSTPNIRVYWQKGREELYEAAYGGSWNTPGQIKDASRPTPSLPDTFIAANSSGNIDISVFFQASGVSLQQWQWISGKGWSIGAVVPTGTPAGW", "values": [
      {"measurement": "glycan array binding signal (z-score)", "setting": "[1]", "value": -0.5},
      {"measurement": "glycan array binding signal (z-score)", "setting": "[2]", "value": -0.518},
      {"measurement": "glycan array binding signal (z-score)", "setting": "[3]", "value": -0.494},
      {"measurement": "glycan array binding signal (z-score)", "setting": "[4]", "value": -0.435},
      {"measurement": "glycan array binding signal (z-score)", "setting": "[5]", "value": -0.485},
      {"measurement": "glycan array binding signal (z-score)", "setting": "[6]", "value": -0.454},
      {"measurement": "glycan array binding signal (z-score)", "setting": "[7]", "value": -0.436},
      {"measurement": "glycan array binding signal (z-score)", "setting": "[8]", "value": -0.508},
      {"measurement": "glycan array binding signal (z-score)", "setting": "[9]", "value": -0.501},
      {"measurement": "glycan array binding signal (z-score)", "setting": "[10]", "value": -0.471},
      {"measurement": "glycan array binding signal (z-score)", "setting": "[11]", "value": -0.489},
      {"measurement": "glycan array binding signal (z-score)", "setting": "[12]", "value": -0.577},
      {"measurement": "glycan array binding signal (z-score)", "setting": "[13]", "value": -0.501},
      {"measurement": "glycan array binding signal (z-score)", "setting": "[14]", "value": -0.425},
      {"measurement": "glycan array binding signal (z-score)", "setting": "[15]", "value": -0.5},
      {"measurement": "glycan array binding signal (z-score)", "setting": "[16]", "value": -0.513},
      {"measurement": "glycan array binding signal (z-score)", "setting": "[17]", "value": -0.442},
      {"measurement": "glycan array binding signal (z-score)", "setting": "[18]", "value": -0.482},
      {"measurement": "glycan array binding signal (z-score)", "setting": "[19]", "value": -0.501},
      {"measurement": "glycan array binding signal (z-score)", "setting": "[20]", "value": -0.433},
      {"measurement": "glycan array binding signal (z-score)", "setting": "[21]", "value": -0.493},
      {"measurement": "glycan array binding signal (z-score)", "setting": "[22]", "value": 1.33},
      {"measurement": "glycan array binding signal (z-score)", "setting": "[23]", "value": 1.29},
      {"measurement": "glycan array binding signal (z-score)", "setting": "[24]", "value": 1.55},
      {"measurement": "glycan array binding signal (z-score)", "setting": "[25]", "value": -0.511},
      {"measurement": "glycan array binding signal (z-score)", "setting": "[26]", "value": -0.364},
      {"measurement": "glycan array binding signal (z-score)", "setting": "[27]", "value": -0.496},
      {"measurement": "glycan array binding signal (z-score)", "setting": "[28]", "value": -0.505},
      {"measurement": "glycan array binding signal (z-score)", "setting": "[29]", "value": -0.443},
      {"measurement": "glycan array binding signal (z-score)", "setting": "[30]", "value": -0.423},
      {"measurement": "glycan array binding signal (z-score)", "setting": "[31]", "value": 0.126},
      {"measurement": "glycan array binding signal (z-score)", "setting": "[32]", "value": -0.404},
      {"measurement": "glycan array binding signal (z-score)", "setting": "[33]", "value": -0.426},
      {"measurement": "glycan array binding signal (z-score)", "setting": "[34]", "value": -0.514},
      {"measurement": "glycan array binding signal (z-score)", "setting": "[35]", "value": -0.515},
      {"measurement": "glycan array binding signal (z-score)", "setting": "[36]", "value": -0.44},
      {"measurement": "glycan array binding signal (z-score)", "setting": "[37]", "value": -0.444},
      {"measurement": "glycan array binding signal (z-score)", "setting": "[38]", "value": -0.421},
      {"measurement": "glycan array binding signal (z-score)", "setting": "[39]", "value": -0.497},
      {"measurement": "glycan array binding signal (z-score)", "setting": "[40]", "value": 1.44},
      {"measurement": "glycan array binding signal (z-score)", "setting": "[41]", "value": 1.42},
      {"measurement": "glycan array binding signal (z-score)", "setting": "[42]", "value": 1.4},
      {"measurement": "glycan array binding signal (z-score)", "setting": "[43]", "value": 1.9},
      {"measurement": "glycan array binding signal (z-score)", "setting": "[44]", "value": -0.031},
      {"measurement": "glycan array binding signal (z-score)", "setting": "[45]", "value": -0.12}
    ]}
  ]
}
